Source: the supplement of paper PMC4967469

Key:
Experiment in all cases: Viability of human cancer cell lines after 72 h of drug (GDSC screen)
TW-37 = compound: CC(C)c1ccccc1Cc1cc(C(=O)Nc2ccc(S(=O)(=O)c3ccccc3C(C)(C)C)cc2)c(O)c(O)c1O [TW-37]; settings: top dose 5 µM
Method: (§1)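 Human cancer cell lines in 384-well plates, medium with 10% serum, drug for 72 h over a 256-fold dose range (nine 2-fold or five 4-fold steps up to the top dose). Adherent lines were fixed and stained with the nucleic acid dye Syto60, suspension lines read with resazurin; signal relative to control wells, capped at 0 and 100%. One two-parameter sigmoid per drug and line, fitted in a mixed model over all curves with the slope shared within a line.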

Bicalutamide = compound: CC(O)(CS(=O)(=O)c1ccc(F)cc1)C(=O)Nc1ccc(C#N)c(C(F)(F)F)c1 [Bicalutamide]; settings: top dose inferred
Method: as §1

GNF-2 = compound: NC(=O)c1cccc(-c2cc(Nc3ccc(OC(F)(F)F)cc3)ncn2)c1 [GNF-2]; settings: top dose 1.28 µM; top dose inferred
Method: as §1

LFM-A13 = compound: C/C(O)=C(\C#N)C(=O)Nc1cc(Br)ccc1Br [LFM-A13]; settings: top dose 16 µM; top dose inferred
Method: as §1

AUY922 = compound: CCNC(=O)c1noc(-c2cc(C(C)C)c(O)cc2O)c1-c1ccc(CN2CCOCC2)cc1 [AUY922]; settings: top dose 0.256 µM; top dose inferred
Method: as §1

KIN001-270 = compound: Cc1ccc(Nc2cc(-c3cccc(N4C(=O)c5ccccc5C4=O)c3)ncn2)cc1NS(C)(=O)=O [KIN001-270]; settings: top dose 20 µM; top dose inferred
Method: as §1

Gemcitabine = compound: Nc1ccn([C@@H]2O[C@H](CO)[C@@H](O)C2(F)F)c(=O)n1 [Gemcitabine]; settings: top dose 1.024 µM
Method: as §1

T0901317 = compound: O=S(=O)(c1ccccc1)N(CC(F)(F)F)c1ccc(C(O)(C(F)(F)F)C(F)(F)F)cc1 [T0901317]; settings: top dose 10.24 µM; top dose inferred
Method: as §1

MP470 = compound: S=C(NCc1ccc2c(c1)OCO2)N1CCN(c2ncnc3c2oc2ccccc23)CC1 [MP470]; settings: top dose 20 µM; top dose inferred
Method: as §1

Nilotinib = compound: Cc1cn(-c2cc(NC(=O)c3ccc(C)c(Nc4nccc(-c5cccnc5)n4)c3)cc(C(F)(F)F)c2)cn1 [Nilotinib]; settings: top dose 2 µM
Method: as §1

[1] = top dose 10 µM, screen: GDSC drug entry 1502
[2] = top dose 1.024 µM, screen: GDSC drug entry 150

Cell Line | AUC (TW-37) | IC50 (TW-37) | AUC (Bicalutamide; [1]) | IC50 (Bicalutamide; [1]) | AUC (GNF-2) | IC50 (GNF-2) | AUC (LFM-A13) | IC50 (LFM-A13) | AUC (Bicalutamide; [2]) | IC50 (Bicalutamide; [2]) | AUC (AUY922) | IC50 (AUY922) | AUC (KIN001-270) | IC50 (KIN001-270) | AUC (Gemcitabine) | IC50 (Gemcitabine) | AUC (T0901317) | IC50 (T0901317) | AUC (MP470) | IC50 (MP470) | AUC (Nilotinib) | IC50 (Nilotinib)
SKM-1 (haematopoietic neoplasm, suspension) | 0.514 | 0.342 µM | 0.96 | > 10 µM | 0.953 | > 1.28 µM |  |  |  |  |  |  |  |  |  |  |  |  |  |  |  | 
TALL-1 (T-cell lymphoblastic leukaemia, suspension) |  |  |  |  | 0.99 | > 1.28 µM | 0.99 | > 16 µM | 0.99 | > 1.02 µM | 0.859 | 0.197 µM | 0.985 | > 20 µM | 0.953 | > 1.02 µM | 0.974 | > 10.2 µM | 0.806 | 9.62 µM |  | 
SIG-M5 (acute myeloid leukaemia, suspension) |  |  |  |  | 0.994 | > 1.28 µM | 0.959 | > 16 µM | 0.994 | > 1.02 µM | 0.318 | 0.00574 µM | 0.9 | 14.2 µM | 0.01 | < 0.004 µM | 0.831 | 4.39 µM | 0.901 | 14.4 µM |  | 
CP67-MEL (melanoma, adherent) |  |  |  |  | 0.927 | > 1.28 µM |  |  |  |  |  |  |  |  |  |  |  |  |  |  |  | 
NCI-H128 (small cell lung carcinoma, suspension) |  |  |  |  | 0.969 | > 1.28 µM |  |  |  |  |  |  |  |  |  |  |  |  |  |  |  | 
THP-1 (acute myeloid leukaemia, suspension) | 0.741 | 1.4 µM |  |  | 0.988 | > 1.28 µM | 0.99 | > 16 µM |  |  |  |  | 0.975 | > 20 µM |  |  |  |  | 0.79 | 7.96 µM |  | 
EW-12 (Ewing sarcoma, suspension) |  |  |  |  | 0.975 | > 1.28 µM |  |  |  |  |  |  |  |  |  |  |  |  |  |  |  | 
KMH-2 (thyroid, adherent) | 0.532 | 0.377 µM | 0.989 | > 10 µM |  |  | 0.979 | > 16 µM | 0.99 | > 1.02 µM | 0.685 | 0.0493 µM | 0.987 | > 20 µM | 0.304 | 0.0193 µM | 0.99 | > 10.2 µM | 0.79 | 7.85 µM | 0.962 | > 2 µM
KP-N-RT-BM-1 (neuroblastoma, semi-adherent) |  |  |  |  | 0.958 | > 1.28 µM |  |  |  |  |  |  |  |  |  |  |  |  |  |  |  | 
MEL-JUSO (melanoma, adherent) | 0.578 | 0.526 µM | 0.979 | > 10 µM |  |  | 0.981 | > 16 µM | 0.984 | > 1.02 µM | 0.471 | 0.0132 µM | 0.974 | > 20 µM | 0.095 | < 0.004 µM | 0.979 | > 10.2 µM | 0.935 | > 20 µM | 0.98 | > 2 µM
NCI-H1755 (lung adenocarcinoma, adherent) | 0.562 | 0.475 µM | 0.971 | > 10 µM |  |  | 0.98 | > 16 µM | 0.984 | > 1.02 µM | 0.8 | 0.148 µM | 0.984 | > 20 µM | 0.756 | 0.402 µM | 0.963 | > 10.2 µM | 0.775 | 9.23 µM | 0.956 | > 2 µM
U251 (glioma, adherent) | 0.463 | 0.249 µM | 0.975 | > 10 µM |  |  | 0.972 | > 16 µM | 0.985 | > 1.02 µM | 0.678 | 0.049 µM | 0.936 | > 20 µM | 0.346 | 0.0245 µM | 0.965 | > 10.2 µM | 0.807 | 9.66 µM | 0.988 | > 2 µM
HT-1376 (bladder, adherent) | 0.762 | 2.09 µM | 0.952 | > 10 µM |  |  | 0.976 | > 16 µM | 0.982 | > 1.02 µM | 0.625 | 0.0378 µM | 0.985 | > 20 µM | 0.714 | 0.291 µM | 0.985 | > 10.2 µM | 0.487 | 1.14 µM | 0.956 | > 2 µM
H2869 (mesothelioma, adherent) | 0.689 | 1.21 µM | 0.982 | > 10 µM |  |  | 0.963 | > 16 µM | 0.983 | > 1.02 µM | 0.645 | 0.0446 µM | 0.984 | > 20 µM | 0.766 | 0.465 µM | 0.984 | > 10.2 µM | 0.935 | > 20 µM | 0.98 | > 2 µM
Ca9-22 (head and neck, adherent) | 0.247 | 0.0623 µM | 0.982 | > 10 µM |  |  | 0.973 | > 16 µM | 0.989 | > 1.02 µM | 0.479 | 0.0141 µM | 0.985 | > 20 µM | 0.203 | 0.00927 µM | 0.971 | > 10.2 µM | 0.948 | > 20 µM | 0.981 | > 2 µM
NCI-H2452 (mesothelioma, adherent) | 0.644 | 0.846 µM | 0.857 | > 10 µM |  |  | 0.976 | > 16 µM | 0.984 | > 1.02 µM | 0.981 | > 0.256 µM | 0.982 | > 20 µM | 0.934 | > 1.02 µM | 0.984 | > 10.2 µM | 0.922 | > 20 µM | 0.984 | > 2 µM
DMS-53 (small cell lung carcinoma, adherent) | 0.72 | 1.39 µM | 0.981 | > 10 µM |  |  | 0.985 | > 16 µM | 0.988 | > 1.02 µM | 0.802 | 0.137 µM | 0.971 | > 20 µM | 0.835 | 0.74 µM | 0.981 | > 10.2 µM | 0.307 | 0.342 µM | 0.988 | > 2 µM

The IC50 comes from the fitted curve, where viability falls to half of the control; where the fit passes the top or lowest dose, that dose stands as a limit. AUC sums up the same curve from the lowest dose to the 256-fold higher top dose: 1 means no effect, lower means more sensitive. For some assays here: Where the top dose is marked as inferred, it comes from the curve model; the source does not state it. For some assays here: An entry number marks a drug with two screens in the source, which often give different values.
